In PubChem BioAssay AID463173 (ICCB-Longwood Screening Facility, Harvard Medical School, 2010) one finds survival data, which are given here for 55 compounds.

Each structure is given as a SMILES string. Screen size: about 52,000 compounds; about 1,700 (3.3%) were called active. Cut-off read from the data, not from the text of the source: active = survival mostly below about 52% (no sharp cut-off); inactive = mostly above about 56%. This is one part of the list.

This experiment concerns Wild type. Briefly: growth inhibition of S. aureus wild type versus tarO mutant, primary screen, teichoic acid synthesis inhibitors, RN4220, OD600 (AID 463173). The note with it: S. aureus RN4220 wild type/DeltatarO growth, OD600, 18 h, hits give low values, screened at 18.75 µg/mL (by protocol).
Regarding `COc1ccc(N2CCN(S(=O)(=O)c3ccc(-c4ccno4)cc3OC)CC2)cc1`, the survival was active: 1%.

In the case of `CCc1cccc(C)c1NC(=O)CN1C(=O)C2(SCC(=O)N2c2cccc(F)c2)c2ccccc21` (stereo not given), the survival was inactive: 136%.

With `CC(C)(C)NC(=O)CSc1nnc(Cc2ccc3c(c2)OCO3)n1C1CCCCC1`, the survival is inactive: 104%.

Consider `CN(Cc1ccccc1)S(=O)(=O)c1ccc(NC(=O)c2cc(=O)c3ccccc3o2)cc1`, for which the survival was inactive: 79%.

Consider `O=C(Nc1cccc(Cl)c1N1CCOCC1)c1ccco1`, for which the survival was inactive: 101%.

In the case of `Cc1ccccc1NC(=O)Cn1c(=O)n(CCc2ccccc2)c(=O)c2ccccc21`, the survival was inactive: 99%.

For `COc1ccc(C(=O)COC(=O)c2cc(-c3cccs3)nc3ccccc23)cc1`, the survival is inactive: 66%.

For the compound `COc1ccc(OC)c(Nc2sc(C(=O)c3ccccc3)c(N)c2S(=O)(=O)c2ccccc2)c1`, the survival was inactive: 86%.

Regarding `Cc1cccc(N2CCN(S(=O)(=O)c3cc(C(=O)Nc4ccc(Oc5ccccc5)cc4)ccc3F)CC2)c1C`, the survival was inactive: 83%.

Take `O=c1oc2ccccc2c(N2CCN(c3ccc(F)cc3)CC2)c1CN1CCCC1`: the survival is inactive: 78%.

With `CC(C(=O)Nc1ccc(OC(F)(F)F)cc1)N1Cc2ccccc2C1=O` (stereo not given), the survival is active: -3%.

`Cc1oc(-c2ccccc2F)nc1CN1CCC(C(=O)NCCc2ccccc2)CC1`: the survival was inactive: 86%.

Turning to `CCCCn1cc(S(=O)(=O)c2cc(C)ccc2C)c(=O)c2cc(F)c(F)cc21`, the survival was inactive: 83%.

With `CCc1nn2c(=O)cc(COC(=O)c3ccccc3NC(=O)COc3ccc(C)c(C)c3)nc2s1`, the survival was inactive: 82%.

For the compound `COc1ccc(CNC(=O)C(C)n2nc(C)c3c(C)n(-c4ccccc4)nc3c2=O)c(OC)c1` (stereo not given), the survival was inactive: 148%.

On to `Cc1ccc(CNC(=O)Cc2csc3ccccc23)cc1`, for which the survival is inactive: 94%.

With `Oc1ccccc1-c1nnc(SCc2ccccc2)o1`, the survival is inactive: 103%.

As for `CCOC(=O)c1cccc(NC(=O)c2oc3c(c2C)-c2nn(CC)cc2CC3)c1`, the survival was inactive: 90%.

As to `Cc1c(Cl)cccc1-n1ncc(C(=O)NC2CCCCC2)c1C1CCN(C(=O)OC(C)(C)C)CC1`, the survival is inactive: 75%.

On to `COc1ccc(Br)cc1[C@@H]1Nc2ccc(C(=O)O)cc2[C@@H]2C=CC[C@@H]21`, for which the survival is inactive: 65%.

For the compound `CCOc1ccc(CCNC(=O)CSc2nnnn2-c2ccccc2)cc1OCC`, the survival is inactive: 129%.

For the compound `C#CCn1c(=O)n(-c2cccc(Cl)c2C)c(=O)c2c3c(sc21)CN(C(C)=O)CC3`, the survival was inactive: 81%.

As for `Cc1ccc(C)c(N2CCN(CCCNC(=O)c3cnn(-c4ccc(F)cc4)c3C3CCN(C(=O)OC(C)(C)C)CC3)CC2)c1`, the survival was inactive: 88%.

Take `CC(C)C(=O)Nc1nc2c(s1)CC(C(C)(C)C)CC2` (stereo not given): the survival was inactive: 118%.

Take `CCOc1ccc(CNC(=O)Cn2nc(C)c3c(C)n(-c4ccc(C)cc4)nc3c2=O)cc1`: the survival is inactive: 78%.

For `COc1ccc(-c2cnc(C)o2)cc1S(=O)(=O)Nc1ccc(OC(F)(F)F)cc1`, the survival was inactive: 71%.

As for `Cc1ccc(C)c(CSc2nnc(C)n3c2cc2sccc23)c1`, the survival was inactive: 65%.

Regarding `O=C(CCS(=O)(=O)c1ccccc1)N(Cc1cccnc1)c1nc2ccc(F)cc2s1`, the survival is inactive: 124%.

Take `CC(=O)c1ccc(-n2c(CCC(=O)O)ccc2-c2cccs2)cc1`: the survival is inactive: 69%.

Regarding `CC1=C(C)CC(C(=O)Nc2ccc(NC(=O)NC3CCCCC3)cc2)C(C(=O)O)C1` (stereo not given), the survival is inactive: 97%.

In the case of `O=C(Cn1c(=O)nc(-c2ccccc2)c2ccccc21)N1CCN(c2ccc(F)cc2)CC1`, the survival was inactive: 83%.

As to `COc1cc(OC)c(NC2=C(c3ccc(C(F)(F)F)cc3)C(=O)c3ccccc32)cc1Cl`, the survival is inactive: 69%.

Take `COc1cc(NC(=O)C(Cc2ccccc2)NS(=O)(=O)c2cccs2)cc(OC)c1` (stereo not given): the survival is inactive: 124%.

`Cc1noc(/C=C/c2ccccc2F)c1S(=O)(=O)N1CCC(C(=O)NCC(C)c2ccccc2)CC1` (stereo not given): the survival was inactive: 74%.

In the case of `O=C(CS(=O)(=O)c1cccc2nsnc12)NCc1ccccc1`, the survival is inactive: 71%.

As to `OCCCn1c(-c2ccc(F)cc2)csc1=Nc1ccc(F)cc1`, the survival was active: 9%.

Consider `CC(C)Oc1ccccc1NC(=O)CSc1nccn1C`, for which the survival was inactive: 73%.

Take `O=C(O)CSc1nc2ccc(NC(=O)COc3ccc(Cl)cc3)cc2s1`: the survival was inactive: 88%.

For the compound `Cc1ccc(-n2c(=O)c3c(c4cc(C)ccc4n3C)n(CC(=O)c3ccc(Cl)cc3)c2=O)cc1`, the survival is inactive: 135%.

On to `COC(=O)c1ccccc1NC(=O)c1nc(-c2ccc(Cl)cc2)n2c1CCCCC2`, for which the survival is inactive: 126%.

In the case of `CCOc1cccc(C(=O)Nc2cc(C)c(O)c(-c3nc4ncccc4o3)c2)c1`, the survival is inactive: 84%.

Consider `Cc1ccc2c(=O)c(C(=O)c3ccc(F)cc3)cn(CC(=O)Nc3ccc4c(c3)OCCO4)c2n1`, for which the survival was inactive: 73%.

For `Cc1ccc(NC(=O)c2ccc(CN3CC(=O)N4CCCCC4C3=O)cc2)c(C)c1` (stereo not given), the survival is inactive: 98%.

As to `COC(=O)c1ccc(NC(=O)CSc2nnc3c4ccccc4n(C(C)C)c3n2)cc1`, the survival was inactive: 67%.

In the case of `COc1cccc(Cc2nc3ccccc3nc2SCC(=O)N2CCCc3ccccc32)c1`, the survival was inactive: 129%.

For `Cc1ccc(-c2nn(CC(=O)NCc3ccccc3)c3c2cnc2ccc(F)cc23)cc1C`, the survival is inactive: 59%.

Consider `O=C(CSc1nccn1C1CCCC1)Nc1cc(C(F)(F)F)ccc1Cl`, for which the survival was inactive: 80%.

For the compound `CCOC(=O)c1c(NC(=O)c2cc(=O)c3cc(C)cc(C)c3o2)sc(C)c1C`, the survival is inactive: 91%.

Consider `Cc1c(NC(=O)C(C)(C)Oc2ccc(Cl)cc2)cccc1-c1nc2ccccc2o1`, for which the survival is active: 1%.

Take `COc1ccc(OC)c(-n2c3c(cc(-c4nc(-c5ccc(Cl)cc5)cs4)c2=O)C(=O)CC(C)(C)C3)c1`: the survival was inactive: 76%.

Take `O=C(c1ccc2c(c1)N(Cc1ccccc1)C(=O)c1ccccc1S2(=O)=O)N1CCc2ccccc21`: the survival is inactive: 87%.

In the case of `CCCNC(=O)CN1C(=O)COc2ccc(S(=O)(=O)N3CCC(C)CC3)cc21`, the survival is inactive: 121%.

For the compound `COc1ccccc1CNC(=O)CSc1ccc(-c2sc(-c3ccccc3)nc2C)nn1`, the survival is inactive: 43%.

Take `Cc1cc(F)ccc1S(=O)(=O)Nc1ccc(O)c(Sc2ncn[nH]2)c1`: the survival is inactive: 110%.

As for `c1ccc(OCCSC2=NCCN2)cc1`, the survival is inactive: 117%.
